According to PubChem BioAssay AID1631 (National Center for Advancing Translational Sciences (NCATS), 2009):
In all, about 260,000 compounds went through this assay and about 890 (0.34%) were called active. The inconclusive results got no clear call from the source; some entries with a clear call stand among them for comparison. Calls follow the shape of the dose curve; as a rule, active = well fitted activation curve with a large enough effect; inconclusive = small, poorly fitted or top-dose-only effect; inactive = no such curve, though single readings can be large or run the other way. Potencies of inconclusive entries are doubtful fits and often do not repeat.

Molecular target: Pyruvate kinase PKM (Homo sapiens) (UniProt P14618)
UniProt P14618, sequence (P14618 whole entry, looked up, canonical isoform): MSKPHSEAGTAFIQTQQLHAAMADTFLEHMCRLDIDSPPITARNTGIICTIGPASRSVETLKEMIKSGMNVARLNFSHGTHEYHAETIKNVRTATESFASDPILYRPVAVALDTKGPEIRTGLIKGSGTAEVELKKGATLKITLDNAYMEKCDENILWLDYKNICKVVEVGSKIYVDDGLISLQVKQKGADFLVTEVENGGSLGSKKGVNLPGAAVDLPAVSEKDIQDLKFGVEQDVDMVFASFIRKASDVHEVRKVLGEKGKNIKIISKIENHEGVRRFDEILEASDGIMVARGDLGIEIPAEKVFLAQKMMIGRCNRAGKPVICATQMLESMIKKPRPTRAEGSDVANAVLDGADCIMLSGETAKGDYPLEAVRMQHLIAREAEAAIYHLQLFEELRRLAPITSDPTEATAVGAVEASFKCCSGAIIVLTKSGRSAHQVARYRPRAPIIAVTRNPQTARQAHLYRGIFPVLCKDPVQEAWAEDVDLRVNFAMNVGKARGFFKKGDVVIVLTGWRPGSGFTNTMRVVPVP
Test: qHTS Assay for Activators of Human Muscle isoform 2 Pyruvate Kinase; also: nearly all actives have a fitted effect of over 55% in size
Settings: purified PKM2, Kinase-Glo ATP luminescence; Potency: activation; activation: at 57.5 µM (top of the series), 0% is enzyme alone, no compound
Outline: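 Purified hPK-M2 (>95%) run at intermediate activity with 0.1 mM ADP and 0.5 mM PEP in 50 mM imidazole pH 7.2, KCl, MgCl2; 1 h room temperature. ATP formed read by Kinase-Glo luminescence; normalized to uninhibited and no-enzyme controls.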
% is scaled to controls: 0 for no effect and ±100 for the full control effect; potency is read from the fitted curve at half-maximal effect; tags tell the direction and shape of the fitted curve.

Potency, inactive:
COc1ccc(-c2nc(CS(=O)CC(=O)NC3CCCc4ccccc43)c(C)o2)cc1OC (stereo unspecified)
COc1ccc(-c2nnc(SCC(=O)Nc3nc4ccccc4s3)n2C)cc1
CC(C)(C)NC(=S)NC1CC1
Cc1ccc(-c2nc(C#N)c(NCc3ccco3)o2)cc1
Nc1ccc(-c2nc3ccc(N)cc3[nH]2)cc1
Cc1sc(NC(=O)c2ccco2)nc1-c1ccc2c(c1)CC(C)N2C(=O)C1CC1 (stereo unspecified)
C/C(CC(=O)Nc1ccc(C)c(Cl)c1)=N\NC(=O)c1ccncc1

Potency, inconclusive:
N#Cc1c2c(c(Nc3ccc(O)cc3)n3c1nc1ccccc13)CCC2 1.41 µM [rising, full curve]
Cc1ccccc1NC(=O)C1CCC(=O)N1 (stereo unspecified) 22.4 µM [rising, single point]
CCCOc1ccc(Cl)cc1CNc1ccccc1 39.8 µM [rising, single point]
COc1ccc(F)cc1C(=O)C1CCCN(C(=O)Cc2c(C)noc2C)C1 (stereo unspecified) 39.8 µM [rising, single point]
COC(=O)c1ccc(COc2cccc3c2CCN(Cc2ccccc2)C3=O)o1 22.4 µM [rising, single point]
CCC(C)c1ccc(O)c(N)c1 (stereo unspecified) 7.08 µM [rising, full curve]
CCOC(=O)CCC(NC(=O)c1ccc(NCN2C(=O)c3ccccc3C2=O)cc1)C(=O)OCC (stereo unspecified) 7.94 µM [rising, single point]
Cc1c(C(=O)OCC(C)C)[nH]c2c1C(=O)CC(c1ccco1)C2 (stereo unspecified) 15.8 µM [rising, partial curve]
CCc1ccc(NS(=O)(=O)c2cc3c(cc2C)n(C)c(=O)c(=O)n3C)cc1 7.94 µM [rising, partial curve]
CN(C)n1cccc1/C=C(\C#N)S(=O)(=O)c1cccc(Cl)c1 6.31 µM [rising, single point]
O=C1CN(Cc2ccccc2)C(=NCc2ccco2)S1 31.6 µM [rising, single point]
O=[N+]([O-])c1cccnc1NCc1cccs1 20 µM [rising, partial curve]
C/C=C\C=C/C(=O)Nc1cccc(C2=NOC3(C2)C[C@@H](C(N)=O)N(C(=O)c2ccc(Cl)cc2)C3)c1 (stereo partly specified) 31.6 µM [rising, single point]
NC(=O)COc1c(-c2ccco2)oc2ccccc2c1=O 25.1 µM [rising, partial curve]
COc1cc(C(=O)Nc2ccc(C)cc2)c(-n2cnnn2)cc1OC 39.8 µM [rising, single point]
O=[N+]([O-])c1cccc(NC(=S)NCc2ccncc2)c1 39.8 µM [rising, single point]
Cc1ccc2nc(C)cc(C(=O)N3CCCC(CO)(Cc4ccccc4C)C3)c2c1 (stereo unspecified) 31.6 µM [rising, single point]
Cc1ccc(C(=O)N2CC(=O)NC(=O)C2)cc1 0.794 µM [rising, single point]
O=C1OCCC1Sc1nnc(-c2ccc(Br)cc2)o1 (stereo unspecified) 22.4 µM [rising, single point]
CCCCOC(=O)Nc1ccc(S(=O)(=O)Nc2nccs2)cc1 22.4 µM [rising, single point]
CC(CCc1ccco1)NC(=O)Cn1ncc2c1-c1ccccc1OC2 (stereo unspecified) 25.1 µM [rising, single point]
Cc1ccc(Cl)cc1NS(=O)(=O)c1ccc2oc(=O)ccc2c1 15.8 µM [rising, partial curve]
Cc1n[nH]c(=O)nc1NCc1ccco1 25.1 µM [rising, partial curve, poor fit]
CCOc1cc(/C=C2\C(=O)ON=C2C)ccc1OCc1ccccc1 20 µM [rising, partial curve]
Cc1ccc(CNC(=O)CCc2nnc(Cc3ccc(-c4ccccc4)cc3)o2)o1 22.4 µM [rising, partial curve]
Oc1ccc(Nc2nc(-c3cccnc3)cs2)cc1 4.47 µM [rising, full curve]
CCCCCCCCc1nc(=S)[nH][nH]1 0.112 µM [rising, full curve]
O=S(=O)(c1cnc(Cl)c(Br)c1)N1CCc2ccccc21 25.1 µM [rising, single point]
O=C(CN1CCc2ccccc2C1)N1CCN(S(=O)(=O)c2ccccc2)CC1 12.6 µM [rising, partial curve]
CN1CCc2cccc3c2[C@H]1Cc1ccc(O)c(O)c1-3 0.891 µM [rising, full curve]
N#CC1=C(N)N(c2ccc(Br)cc2)C2=C(C(=O)CCC2)C1c1cccnc1 (stereo unspecified) 39.8 µM [rising, single point]

Potency, active:
CCc1cccc(NS(=O)(=O)c2ccc3c(c2)oc(=O)n3C)c1 3.16 µM
COc1cc(NS(=O)(=O)c2cc3[nH]c(=O)c(=O)[nH]c3cc2C)cc(OC)c1OC 7.08 µM
COc1ccc(S(=O)(=O)Nc2ccc3c(c2)OCO3)cc1 25.1 µM
Cc1ccc(-c2nn(-c3cccc(F)c3)cc2CN2CCN(c3ccccn3)CC2)o1 15.8 µM
O=S(=O)(c1ccc2c(c1)OCCO2)N1CCN(c2cccc(Cl)c2)CC1 2.82 µM
CCN(/N=C/c1cccs1)c1cc(=O)n(C)c(=O)[nH]1 22.4 µM
CN(c1ccccc1)S(=O)(=O)c1cccc(C(=O)NCCc2ccc(O)c(O)c2)c1 1.41 µM

activation, inactive:
CC(CC(=O)NC1CCCCC1)S(=O)(=O)c1ccc2c(c1)NC(=O)CO2 (stereo unspecified) 1.12% [at 0.46 µM, 0% is enzyme alone, no compound]
